Experimental data: PMC9448326
These are yes or no findings as the source states them, for the method shown. Binding seen in cells or lysates may run through a third protein. Some results given as binding are weak or reduced against the parent protein; the word gives no strength.

By UniProt entry, the sequences of proteins in these tests, tags left out. Where a name states a change or a piece, a line headed by the entry shows the natural chain unless it says otherwise. Chains listed by the source or under a name are the forms on record and can include a tag or linker.
UniProt P17302: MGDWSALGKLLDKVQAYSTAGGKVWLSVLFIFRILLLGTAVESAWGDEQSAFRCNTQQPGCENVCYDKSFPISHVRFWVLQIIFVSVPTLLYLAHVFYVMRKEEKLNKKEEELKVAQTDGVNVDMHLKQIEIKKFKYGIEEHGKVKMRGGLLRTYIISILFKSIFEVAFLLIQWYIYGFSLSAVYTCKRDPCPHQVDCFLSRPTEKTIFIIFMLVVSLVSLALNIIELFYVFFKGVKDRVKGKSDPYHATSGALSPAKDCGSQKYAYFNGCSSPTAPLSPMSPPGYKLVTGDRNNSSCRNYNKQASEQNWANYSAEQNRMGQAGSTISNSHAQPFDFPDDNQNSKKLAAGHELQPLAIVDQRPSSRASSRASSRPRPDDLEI
UniProt P16863: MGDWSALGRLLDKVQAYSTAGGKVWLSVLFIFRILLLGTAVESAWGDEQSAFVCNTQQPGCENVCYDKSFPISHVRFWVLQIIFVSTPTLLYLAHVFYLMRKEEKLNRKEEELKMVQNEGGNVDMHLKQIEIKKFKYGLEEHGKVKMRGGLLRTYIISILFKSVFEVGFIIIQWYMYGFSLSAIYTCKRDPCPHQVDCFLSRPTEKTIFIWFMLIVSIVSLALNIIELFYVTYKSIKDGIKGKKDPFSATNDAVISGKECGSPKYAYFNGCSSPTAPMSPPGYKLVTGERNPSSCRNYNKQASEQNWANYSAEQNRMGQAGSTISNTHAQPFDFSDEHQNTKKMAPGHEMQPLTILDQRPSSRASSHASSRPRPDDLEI
Xenopus laevis dominant-negative GJA1 Δ234–243-Flag (P16863, form named): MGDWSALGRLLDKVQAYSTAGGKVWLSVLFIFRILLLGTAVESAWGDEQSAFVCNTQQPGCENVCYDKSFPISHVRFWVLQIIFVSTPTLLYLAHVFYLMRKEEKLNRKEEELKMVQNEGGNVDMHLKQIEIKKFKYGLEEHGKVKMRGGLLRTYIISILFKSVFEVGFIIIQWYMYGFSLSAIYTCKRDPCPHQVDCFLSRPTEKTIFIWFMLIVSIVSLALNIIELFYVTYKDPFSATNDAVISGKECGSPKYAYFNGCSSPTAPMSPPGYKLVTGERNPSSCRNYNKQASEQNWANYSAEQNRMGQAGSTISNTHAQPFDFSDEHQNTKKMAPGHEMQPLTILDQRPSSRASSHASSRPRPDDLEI
Xenopus laevis dominant-negative GJA1 Δ130–136-Flag (P16863, form named): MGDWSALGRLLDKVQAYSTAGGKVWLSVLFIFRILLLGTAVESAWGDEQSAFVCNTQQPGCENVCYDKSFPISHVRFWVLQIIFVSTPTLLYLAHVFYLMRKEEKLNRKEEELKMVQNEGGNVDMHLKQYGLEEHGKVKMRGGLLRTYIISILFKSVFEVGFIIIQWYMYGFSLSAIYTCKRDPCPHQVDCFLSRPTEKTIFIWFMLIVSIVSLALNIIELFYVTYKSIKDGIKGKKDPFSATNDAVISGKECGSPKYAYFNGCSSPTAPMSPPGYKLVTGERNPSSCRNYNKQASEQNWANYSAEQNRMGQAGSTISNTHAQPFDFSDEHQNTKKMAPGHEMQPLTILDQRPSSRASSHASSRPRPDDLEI
UniProt P61006: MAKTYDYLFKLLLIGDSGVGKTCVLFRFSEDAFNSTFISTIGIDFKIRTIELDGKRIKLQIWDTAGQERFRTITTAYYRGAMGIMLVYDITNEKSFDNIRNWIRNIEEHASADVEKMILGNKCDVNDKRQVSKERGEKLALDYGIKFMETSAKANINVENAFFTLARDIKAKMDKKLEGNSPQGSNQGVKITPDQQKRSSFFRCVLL
UniProt P62491: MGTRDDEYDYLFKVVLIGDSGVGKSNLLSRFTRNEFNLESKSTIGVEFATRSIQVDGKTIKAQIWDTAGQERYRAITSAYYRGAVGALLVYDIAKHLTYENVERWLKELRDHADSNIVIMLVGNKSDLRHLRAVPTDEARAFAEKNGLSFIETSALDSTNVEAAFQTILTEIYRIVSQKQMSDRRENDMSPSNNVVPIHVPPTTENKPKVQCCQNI

Columns and labels:
[1] = target: Gap junction protein α1 (GJA1), endogenous in human RPE1 cells (human (endogenous in RPE1)) (UniProt P17302); assay: co-IP; lysate of RPE1 cells expressing HA-tagged Rab protein; anti-GJA1 antibody-conjugated or IgG-conjugated beads; immunoblot with anti-GJA1 and anti-HA
[2] = target: Xenopus laevis dominant-negative GJA1 Δ234–243-Flag (Xenopus laevis) (UniProt P16863); assay: co-IP; lysate of RPE1 cells co-expressing Rab11a-HA and WT-GJA1-Flag or dnGJA1-Flag; anti-Flag M2 magnetic beads; immunoblot with anti-flag and anti-HA
[3] = target: Xenopus laevis dominant-negative GJA1 Δ130–136-Flag (Xenopus laevis) (UniProt P16863); assay: as above
[4] = target: Xenopus laevis dominant-negative GJA1 T154A-Flag (Xenopus laevis) (UniProt P16863); assay: as above
[5] = target: Xenopus laevis wild-type GJA1-Flag (Xenopus laevis) (UniProt P16863); assay: as above

Substance	binding [1]	binding [2]	binding [3]	binding [4]	binding [5]
HA-tagged Rab8a (from UniProt P61006 1-207)	binds				
HA-tagged Rab11a (from UniProt P62491 1-216)	binds	no binding	no binding	no binding	binds
